# From PubChem BioAssay AID463173 (ICCB-Longwood Screening Facility, Harvard Medical School, 2010)
# The whole screen tested about 52,000 compounds, of which about 4,300 (8.3%) were called active. Cut-off read from the data, not from the text of the source: active = survival mostly below about 52% (no sharp cut-off); inactive = mostly above about 56%. Some of the results follow.
# Test system: DeltatarO mutant
# Assay: S. aureus survival, RN4220 and DeltatarO strains – OD600, teichoic acid synthesis inhibitors, primary screen (AID 463173)
# Details: S. aureus RN4220 wild type/DeltatarO growth, OD600, 18 h, stronger effect = lower value, screened at 18.75 µg/mL (by protocol)
row,Compound,survival
1,O=C(CC1N=C2c3ccccc3N=C(SCc3cccc(Cl)c3)N2C1=O)NC1CCCCC1 (stereo unspecified),inactive: 84%
2,COc1ccc(NC(=O)CSc2nnc(-c3nnn(-c4ccc(F)cc4)c3C)o2)cc1,inactive: 88%
3,COc1cc(OC)c(NC(=O)c2nc(-c3ccncc3)no2)cc1Cl,inactive: 109%
4,CCCCCNC(=O)C1CCC(Cn2c(=O)c3sccc3n(CC(=O)N3CCCC3)c2=O)CC1 (stereo unspecified),inactive: 84%
5,COc1cc(OC)c(NC(=O)NCc2ccc3c(c2)CCN3C(C)=O)cc1Cl,inactive: 124%
6,c1ccc(N2CCN(c3ncnc4[nH]ncc34)CC2)cc1,inactive: 78%
7,O=c1c2cc3c(cc2n(Cc2cccc(F)c2)c(=O)n1Cc1nc(-c2ccccc2)no1)OCO3,inactive: 84%
8,O=C1CC(CSc2nnc(-c3ccc(Cl)cc3)n2-c2ccccc2)=NN1,inactive: 110%
9,CCc1ccccc1NC(=O)CC(C)n1nc(C)cc1C (stereo unspecified),inactive: 95%
10,OC1CCN(C(=S)Nc2ccccc2)CC1,inactive: 101%
11,Cc1ccc(N2C(=O)c3n[nH]c(C)c3C2c2ccc(C(C)C)cc2)cc1 (stereo unspecified),active: 39%
12,COc1cccc(C(=O)Nc2ccccc2-c2nc(-c3ccc(C)cc3)no2)c1,active: 48%
13,COCCNC(=O)CN1CCC(NC(=O)c2ccco2)CC1,inactive: 90%
14,CCOC(=O)c1c(S(=O)(=O)N2CCN(c3ccccc3OC)CC2)c(C)n(C)c1C,inactive: 97%
15,Cc1ccc(C(=O)NCc2nnnn2-c2ccc(C)c(C)c2)cc1,inactive: 115%
16,CC(C)OC(=O)CSc1nnc(CNc2ccc(F)cc2)n1C1CCCCC1,inactive: 83%
17,Cc1ccc(-c2nnc(Nc3ccc(Br)cc3)c3ccccc23)cc1S(=O)(=O)NCc1nc2ccccc2[nH]1,inactive: 67%
18,CCOC(=O)c1ccc(NC(=O)CSc2nnc(CNc3ccc(C)cc3C)n2Cc2ccco2)cc1,inactive: 68%
19,Cc1ccc(Cl)cc1NC(=O)c1cccc(NC(=O)N2CCSc3ncccc32)c1,inactive: 115%

row,Compound,survival
1,CCOc1ccc(NC(=O)C2CCCN(c3nnc(-n4c(C)ccc4C)s3)C2)cc1 (stereo unspecified),inactive: 71%
2,CCC(C(=O)OC(C)C)n1cnc2sc3c(c2c1=O)CCC(C)C3 (stereo unspecified),inactive: 93%
3,CCc1ccc(NCc2cc3ccc(OC)cc3n(CC(=O)Nc3cccc(Cl)c3C)c2=O)cc1,inactive: 76%
4,COc1ccc(S(=O)(=O)N(CCc2ccccc2)CC(=O)NCc2ccccc2)cc1OC,inactive: 62%
5,COCCN1C(=O)c2[nH]nc(-c3c(C)cc(C)cc3O)c2C1c1cccc(O)c1 (stereo unspecified),inactive: 57%
6,Cc1c(NC(=O)CN2C(=O)c3cccc4cccc2c34)c(=O)n(-c2ccccc2)n1C,inactive: 98%
7,CC(C)Cn1c(N2CCN(C(=O)Nc3ccc(Cl)cc3)CC2)nc2ccccc21,inactive: 102%
8,CC(=O)c1ccc(NC(=O)C2CCC(CNS(=O)(=O)c3cccc4nsnc34)CC2)cc1 (stereo unspecified),inactive: 110%
9,Cc1cccn2c(=O)c(C(=O)NCCc3ccc(Cl)cc3)cnc12,inactive: 83%
10,CC(C)(C)OC(=O)N1CCC(c2c(C(=O)N3CCN(C(=O)c4ccco4)CC3)cnn2-c2ccc(Cl)cc2)CC1,inactive: 83%
11,CCc1ccccc1N1C(=O)N(Cc2cccc(Cl)c2)c2ccccc2S1(=O)=O,inactive: 83%
12,Cc1ccc(Cn2c(SCc3ccc(C(=O)NCCc4ccccc4)cc3)nc3ccncc32)cc1,inactive: 77%
13,Cc1nc(-c2ccc(C)c(N3CCN(C(=O)Nc4ccc(Br)cc4)CC3)c2)no1,active: 17%
14,CCn1cc(S(=O)(=O)c2cccc(C)c2)c(=O)c2cc(F)c(N3CCCCC3C)cc21 (stereo unspecified),inactive: 83%
15,COc1ccc(-n2c(=O)c3sc4ccccc4c3n(CC(=O)N3CCCC3)c2=O)cc1,inactive: 96%
16,CS(=O)(=O)c1nc(-c2ccc(Br)cc2)n[nH]1,inactive: 92%
17,COc1ccc(-c2cn3c(n2)sc2cc(C(=O)Nc4ccccc4F)ccc23)cc1,inactive: 44%
18,COc1ccc(-n2c(SCC(=O)N3CCCc4ccccc43)nc3c([nH]c4ccccc43)c2=O)cc1,inactive: 101%
19,Cc1ccc(C)n1-c1ccc(NC(=O)c2ccccc2)cc1,inactive: 79%

row,Compound,survival
1,c1coc(-c2nc3ccccn3c2Nc2ccc3c(c2)OCCO3)c1,active: 53%
2,CCOc1ccc(NC(=O)CCS(=O)(=O)c2ccc3nc(C)sc3c2)cc1,inactive: 55%
3,COc1cc(Cl)c(C)cc1NC(=O)c1cnn(-c2ccc(C)cc2)c1-n1cccc1,inactive: 57%
4,O=C(O)CCCC(=O)N1CCc2cc(S(=O)(=O)NCc3ccccc3)ccc21,inactive: 111%
5,CCOC(=O)c1[nH]c2c(c1Cc1ccccc1)C(=O)CC(c1ccc(OC)cc1)C2 (stereo unspecified),inactive: 76%
6,CCSc1nc2c([nH]c3ccccc32)c(=O)n1-c1ccc(OC)cc1,active: 46%
7,CCC1CCCCN1C(=O)c1sc2nc(C)cc(C)c2c1N (stereo unspecified),inactive: 87%
8,CCOC(=O)c1ccc(NC(=O)c2cnc(N3CCCC3)nc2C)cc1,inactive: 94%
9,CC1CCCN(c2ncnc3c2nc2n3CCCCC2)C1 (stereo unspecified),inactive: 94%
10,CN(C)c1ccc(CNc2nc(-c3ccco3)nn2S(C)(=O)=O)cc1,inactive: 64%
11,Cc1ccccc1Cn1c(=O)n(CCCCC(=O)NCCc2ccccc2)c(=O)c2ccccc21,inactive: 83%
12,CCc1ccc(NC(=O)CSC2=Nc3ccccc3C3=NC(CC(=O)NCc4ccc5c(c4)OCO5)C(=O)N23)cc1 (stereo unspecified),inactive: 107%
13,CCc1ccc2occ(CC(=O)Nc3c(C(=O)Nc4ccc(Cl)cc4)oc4ccccc34)c2c1,inactive: 73%
14,CN(C)CCNC(=O)c1ccc2nc(CCc3ccccc3)oc2c1,inactive: 71%
15,Cc1ccc(CNC(=O)C(=O)NCC(c2cccs2)S(=O)(=O)c2cccs2)cc1 (stereo unspecified),inactive: 98%
16,CC(C)(C)OC(=O)N1CCC(c2c(C(=O)Nc3ccc4c(c3)OCO4)cnn2-c2ccc(F)cc2F)CC1,inactive: 84%
17,COc1ccc(NC(=O)/C(C#N)=C/c2ccc(C)o2)cc1,inactive: 77%
18,CCOC(=O)CSC1=Nc2ccccc2C2=NC(CCC(=O)NCc3ccccc3)C(=O)N12 (stereo unspecified),inactive: 98%
